# Laboratory results as given in paper PMC10668032.
# This is one part of the list. At the low end of the ranking, values are background and their order means little.
# Molecular target: SIX1-Q177R homeodomain (UniProt Q15475)
# Assay: universal protein binding microarray
# Settings: Universal all-10-mer PBM (8x60K, AMADID 030236), 300 nM GST-tagged protein, Alexa Fluor 488 anti-GST; buffer, salt, pH and temperature not stated; high values mean tight binding; most listed sequences are background and not binding sites; double strand, one strand shown
row,Sequence,binding signal [E-score]
1,ATGCGAAC,0.0387
2,AAGCATAT,-0.288
3,ACCCGTTG,0.151
4,CAATCCGG,0.0613
5,CTCCTGGC,-0.0387
6,AATAGCGC,-0.0487
7,AGCCCCCC,0.112
8,ACGTCGGC,-0.253
9,CTAGGATC,0.0719
10,GCGCGACC,0.0404
11,GTCCATGA,0.0465
12,ATTTGCTC,-0.237
13,ATGGGGAC,-0.0165
14,ATAGCCAG,-0.204
15,ACCCACTA,0.105
16,GAGATTAA,-0.27
17,CGAAACAG,-0.193
18,GCGACTCC,0.262
19,ACAATTGG,-0.085
20,CTACCAGA,-0.0607
21,CACCACCG,0.355
22,CAGAAGTC,-0.134
23,CGACAGCA,-0.204
24,CTGTGGTC,-0.0737
25,AGCTGACG,-0.21

row,Sequence,binding signal [E-score]
1,ACGACTAC,0.0149
2,GTTGTGGA,-0.0646
3,AGTCGAGC,-0.267
4,AATAGAAA,-0.00737
5,AACACCGA,0.469
6,AACACGAC,0.373
7,CATTGAAC,-0.0506
8,ACAGGAGG,-0.0345
9,CGAACCGA,0.0564
10,TATCCCCA,0.114
11,GCTCAGTA,0.0624
12,TAAACCTA,0.00984
13,GATCTCTA,-0.222
14,CGGGACGA,-0.0572
15,CGGCCTTA,-0.198
16,GGATAATA,0.111
17,GCACTAGC,0.125
18,AAAGCTAG,-0.21
19,ATCATGGC,-0.0689
20,CAAGAGAC,-0.0111
21,CCCCCTAG,0.0681
22,AACGCAAA,-0.154
23,GCCAATAA,-0.113
24,GAGGAATC,-0.0718
25,GCGGCTCA,-0.0736

row,Sequence,binding signal [E-score]
1,ATGGAAAG,-0.227
2,GCGTCTCC,0.0439
3,CACTCAGC,0.114
4,AGTATTCG,-0.202
5,TCGTTACA,0.278
6,TAATGAGA,-0.195
7,CCGAACGA,0.133
8,GAGCCGCC,-0.0985
9,ACTGAGCT,-0.0707
10,ACGCGTTG,-0.00609
11,GGATGCGA,-0.165
12,ACGCATTC,-0.155
13,AGTGTCTC,0.329
14,CGCCAGAA,0.0208
15,ACCGATCG,-0.0746
16,GCACGCAC,0.123
17,AATTTGGA,-0.0664
18,CAGGATTA,0.0279
19,CGTACCAA,0.00849
20,ACTAAAGT,-0.0957
21,CTTAGGCC,0.0518
22,CACATAGA,-0.0656
23,AGTGGTCC,-0.215
24,AAGGCTGA,-0.19
25,CTCATCGC,-0.0999

row,Sequence,binding signal [E-score]
1,ATGGGACC,-0.0715
2,AAACTAGT,-0.158
3,ATTTACAC,0.451
4,ACAGATAG,-0.152
5,GAAATCGA,-0.201
6,AGAAGCCG,-0.175
7,GACTTTAC,0.047
8,ACGTCGTC,-0.228
9,AAATCACG,-0.121
10,CCCGACAA,0.0176
11,AAATGCAG,-0.162
12,CGACCACA,0.0686
13,AACCATAC,0.0445
14,CGGGCCCA,-0.22
15,ATGATTAC,-0.136
16,GGAACGAA,-0.0782
17,AACATTGA,-0.163
18,ATACCGGC,0.0811
19,AAGAGTAT,-0.00511
20,ATTGGTTC,-0.148
21,ATTTTGGA,-0.142
22,AGAAGTAC,0.0714
23,AATAGATT,-0.141
24,ACGATGGC,-0.111
25,CCAAAACC,0.00258

row,Sequence,binding signal [E-score]
1,TCATAAGA,-0.0328
2,ACACTACA,0.41
3,CACACCTA,0.333
4,AGCTGCTC,-0.0419
5,CGATTATA,-0.0193
6,AACCACGG,-0.0772
7,AGTGGTTC,-0.0702
8,GTACGGAA,-0.0201
9,ACGCCAAG,0.0803
10,AGGATTTA,-0.0376
11,AATACAGG,-0.221
12,AGGTCGAA,-0.0118
13,CTAGGCTA,-0.157
14,ATAAGGTG,0.217
15,AATTTTCG,-0.309
16,GGAAACGA,-0.178
17,CGTGCGCA,-0.101
18,AGTTCGAA,0.156
19,CACGTCTA,0.137
20,GCCTTGGA,-0.0916
21,AATGGATA,0.0833
22,CGAGTTCA,-0.0101
23,GCGACCTA,-0.0335
24,GGTATGCA,0.144
25,ATCGAGTG,0.172

row,Sequence,binding signal [E-score]
1,CTCTCTCC,-0.0479
2,ATCTGCGC,0.0383
3,CCCAGGAA,-0.00647
4,AAGGTATG,-0.014
5,AGCAGCCC,-0.00822
6,CGGCTGCA,-0.0593
7,CGACTAAC,0.192
8,ACGATAAC,0.00713
9,ATAGATTG,-0.12
10,AGGCAATC,0.0116
11,AGATCACG,-0.104
12,GCGCGATA,-0.0906
13,AGACTGCA,-0.151
14,ACCCCGCA,0.259
15,CAGGTCAG,-0.149
16,TACATTCA,-0.301
17,CAGTTAGC,-0.216
18,AAGCTAGT,-0.162
19,GCGCTTTA,-0.295
20,GGAGCGGA,-0.124
21,TGGTTTAA,0.0547
22,CAACTCAG,-0.0605
23,AGCCGCAC,-0.17
24,ATTGACCC,0.167
25,CCTCGTAA,0.0299

row,Sequence,binding signal [E-score]
1,TATTATAA,-0.0644
2,ACTAGAGA,-0.0743
3,ATTGCATG,-0.0533
4,CAACATTA,-0.105
5,ATGCGATG,-0.118
6,CGGCAGTA,-0.151
7,CAGGTTCC,-0.0489
8,CCGAGCTA,0.0115
9,GCGAGAAC,-0.0828
10,CGAAGTCC,-0.17
11,AAGGATGG,0.0751
12,GAGGATCC,0.139
13,ACAGGTCC,-0.0608
14,ATCTTCCA,0.0232
15,CTACCTAC,0.0425
16,GAACGTAA,-0.0777
17,ACTGGAAC,0.0784
18,ACTAACAG,-0.019
19,CCACAGAA,0.135
20,CCTCAGCC,-0.265
21,GCCCAACC,-0.051
22,GAAACTCC,-0.0671
23,GGGTATGA,0.186
24,AGATAGCC,-0.104
25,ACTAGAGG,0.044

row,Sequence,binding signal [E-score]
1,ACGAACTA,-0.0737
2,ACGCCCGT,0.111
3,AACACAGA,0.15
4,CAATACTC,0.0402
5,CTCGGGGC,-0.0523
6,GGTACTAC,0.0689
7,AATGGAAG,-0.127
8,CTGAATCA,-0.118
9,GAGTGGTA,-0.0278
10,ACTGTTAC,0.086
11,GCCGGAGC,-0.0715
12,AAGGAAGC,-0.262
13,GACGAGAA,-0.282
14,ATGGTCTA,-0.0851
15,CTTTATAA,-0.1
16,GAGAGGAA,0.0986
17,CAGGATGA,-0.0525
18,TATGAATA,0.00244
19,CAACATTG,-0.0338
20,CCAGCTGA,-0.0521
21,GCCCCCGA,-0.0372
22,AGAAGTCA,-0.135
23,GGCCCCGA,-0.0711
24,ACTTAACG,-0.11
25,CGATAAAC,-0.112

row,Sequence,binding signal [E-score]
1,GCAACCAA,-0.0222
2,AAACTTCG,-0.246
3,CCTCGGCA,0.0366
4,GGTACTCA,0.0462
5,CACAAATG,-0.173
6,CCATACGG,-0.0765
7,GAATCGTC,-0.0814
8,AGGCGCGA,-0.176
9,ATTGGACG,-0.304
10,TCACCCAA,0.0387
11,AGACTAAT,-0.126
12,GGATTAGA,-0.0263
13,GTCACTGA,0.0983
14,AAGATCGC,-0.0229
15,ATAGCGAC,0.211
16,CCGGTGCG,0.179
17,GGTTTCGA,0.0098
18,AAGGTGAA,0.0656
19,AGTAGGGG,0.196
